According to paper PMC4336329 (PLoS ONE, 2015):
The campaign covered roughly 310,000 compounds. About 2,200 (0.71%) showed an effect of 50% or more. Effects have a minus sign here. This is one part of the list.

Each compound was assayed against human ether-à-go-go-related gene (hERG) potassium channel (human, UniProt Q12809) (assay: primary screen, population patch clamp on CHO cells stably expressing hERG).
Sequence of human ether-à-go-go-related gene (hERG) potassium channel (Q12809 whole entry, looked up): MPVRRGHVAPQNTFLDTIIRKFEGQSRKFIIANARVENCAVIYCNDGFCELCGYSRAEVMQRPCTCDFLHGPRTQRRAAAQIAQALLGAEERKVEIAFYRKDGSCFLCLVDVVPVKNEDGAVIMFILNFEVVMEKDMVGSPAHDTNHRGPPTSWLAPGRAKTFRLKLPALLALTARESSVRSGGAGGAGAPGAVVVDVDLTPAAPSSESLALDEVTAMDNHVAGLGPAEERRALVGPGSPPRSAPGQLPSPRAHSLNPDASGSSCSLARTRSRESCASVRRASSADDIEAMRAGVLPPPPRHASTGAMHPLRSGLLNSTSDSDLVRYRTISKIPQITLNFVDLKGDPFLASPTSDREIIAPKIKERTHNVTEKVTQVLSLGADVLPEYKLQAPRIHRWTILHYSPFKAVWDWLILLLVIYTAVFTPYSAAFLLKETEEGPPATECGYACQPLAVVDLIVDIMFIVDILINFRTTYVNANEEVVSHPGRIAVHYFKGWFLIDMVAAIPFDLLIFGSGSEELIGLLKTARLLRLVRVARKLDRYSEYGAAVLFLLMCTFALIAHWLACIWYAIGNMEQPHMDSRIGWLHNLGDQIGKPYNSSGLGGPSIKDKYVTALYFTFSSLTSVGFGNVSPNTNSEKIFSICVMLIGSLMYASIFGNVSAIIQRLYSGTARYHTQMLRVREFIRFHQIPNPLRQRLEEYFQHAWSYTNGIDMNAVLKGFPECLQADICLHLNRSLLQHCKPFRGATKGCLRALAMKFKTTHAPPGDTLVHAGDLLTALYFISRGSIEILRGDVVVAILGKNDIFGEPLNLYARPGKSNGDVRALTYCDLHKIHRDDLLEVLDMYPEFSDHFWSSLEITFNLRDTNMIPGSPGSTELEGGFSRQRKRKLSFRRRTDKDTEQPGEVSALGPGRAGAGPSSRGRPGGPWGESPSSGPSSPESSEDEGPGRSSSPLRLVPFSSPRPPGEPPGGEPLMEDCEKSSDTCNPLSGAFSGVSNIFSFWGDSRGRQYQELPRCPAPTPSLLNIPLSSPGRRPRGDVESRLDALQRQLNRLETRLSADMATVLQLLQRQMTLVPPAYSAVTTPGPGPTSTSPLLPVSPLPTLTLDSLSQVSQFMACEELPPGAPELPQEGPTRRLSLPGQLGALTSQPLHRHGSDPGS

Row | Compound | hERG current change (%, negative = inhibition) at 1uM [%]
1 | O=C(COc1ccc(C(=O)c2ccccc2)cc1)NC1CCCCC1 | 7.95
2 | CC(=O)Nc1ccc(S(=O)(=O)N(C)CC(=O)N(C)Cc2sccc2C)cc1 | 3.4
3 | Cc1cc(S(=O)(=O)n2ccnc2)c(Cl)cc1Cl | 17.9
4 | Cc1sc2ccccc2c1CC1=NCCN1.O=C(O)C(=O)O | -6.72
5 | CCN(CC1COc2ccccc2O1)C(=S)Nc1ccccc1 (centres unmarked) | -0.135
6 | Clc1cccc(CSc2nc3ccncc3[nH]2)c1 | 8.25
7 | COC(=O)c1ccc(OCC(=O)N2CCCc3ccccc32)cc1 | 15
8 | CCOC(=O)c1ccc(Nc2nc(-c3cccnc3)nc3ccccc23)cc1 | 6.38
9 | COc1ccc(CCNc2nc(=O)[nH]nc2C)cc1OC | 8.85
10 | CCc1nnc(NC(=O)CCn2cnc3ccccc3c2=O)s1 | 2.54
11 | O=C(NC1CCCC1)C(=O)c1c[nH]c2ccccc12 | 14.7
12 | CCOC(=O)Cn1c(=O)c2c(nc(Br)n2Cc2ccccc2Cl)n(C)c1=O | 11.5
13 | N#CCN1CCN(CC(=O)Nc2cccc3ccccc23)CC1 | 15.7
14 | O=C(O)c1ccc(OCCN2CCCC2=O)cc1 | 12.1
15 | CNS(=O)(=O)c1ccc2c(c1)NC(=O)C1CCCN21 (centres unmarked) | 14.6
16 | C#CCOCCOCCOCCNc1nc(N2CCN(C(=O)CCCCCCCCCCNC(=O)[C@H](CO)n3cc(CCCSC)nn3)CC2)nc(N2CCN(C(=O)CCCCCCCCCCNC(=O)[C@H](CO)n3cc(CCCSC)nn3)CC2)n1 | 10.2
17 | O=C(COC(=O)/C=C/c1cccc(Cl)c1)NC1CC1 | 5.04
18 | CN(CC(=O)Nc1ccccc1)CC(=O)Nc1ccccc1Cl | 9.87
19 | O=C(NCC1COc2ccccc2O1)C1CCN(S(=O)(=O)c2ccc(Cl)cc2)CC1 (centres unmarked) | 7.92
20 | O=C(COC(=O)COc1ccc(Cl)cc1)NC1CC1 | 4.63
21 | O=C(CN(C1CCCCC1)S(=O)(=O)c1ccccc1)N1CCCC1 | -23
22 | O=C1C(=O)N(CCOCCO)C(c2ccccn2)/C1=C(\O)c1ccccc1 (centres unmarked) | 7.23
23 | CNS(=O)(=O)c1ccc(NC(=O)c2ccccn2)cc1 | 5.24

Row | Compound | hERG current change (%, negative = inhibition) at 1uM [%]
24 | O=S(=O)(Cc1ccccc1)NCCc1ccc(F)cc1 | 14.4
25 | CCN(CC)c1ccc(/C=N/Nc2nc(C)cc(=O)[nH]2)c(O)c1 | 7.91
26 | O=C(c1cc(-c2ccco2)nc2ccccc12)N(Cc1nnc(-c2ccc(Cl)cc2)o1)C1CC1 | 21.2
27 | COC(=O)Cc1c(C)nc2nc[nH]n2c1=O | 10.5
28 | O=C(NCCc1ccccc1)C(=O)NCCC1CCCCN1S(=O)(=O)c1cccs1 (centres unmarked) | -4.19
29 | CCN(CCCNC(=O)C1CCN(S(=O)(=O)c2cnc[nH]2)CC1)c1cccc(C)c1 | 6.32
30 | CSc1nnc(C)c(/C=C/Nc2ccc(Cl)cc2)n1 | 14.9
31 | C=CCn1c(SCC(=O)Nc2c(C)n(C)n(-c3ccccc3)c2=O)nc2scc(-c3ccccc3)c2c1=O | 1.3
32 | CCCCCC(=O)Nc1nc(C)c(-c2csc(Nc3ccccc3OC)n2)s1 | 15.9
33 | CC(C)CCN1C(Nc2ccccc2)=NC[C@@H]1CC(C)C | -3.68
34 | CC(C)(C)OC(=O)N1CCC[C@H]1c1nnc(SCc2ccc(Cl)cc2Cl)o1 | 8.33
35 | O=C(N/N=C/c1cccnc1)c1cccs1 | 4.13
36 | Cc1cc(C)c(OCC(=O)Nc2ccc(N3CCOCC3)cc2)c(Br)c1 | 11.3
37 | CC(C)c1csc(CN2CCCC(CNC(=O)c3cccc4ccccc34)C2)n1 (centres unmarked) | 11.3
38 | COc1ccc(C(=O)NC2CCCc3ccccc32)c(OC)c1OC (centres unmarked) | -4.64
39 | COc1ccc(/C=C2/CC/C(=C\c3ccc(OC)c(OC)c3OC)C2=O)c(OC)c1OC | 10.4
40 | Cc1cc(Sc2nc(N(C)C)nc(N(C)C)n2)nc(Cl)n1 | 5.05
41 | Cc1ccc2nc(-c3ccncc3)cc(C(=O)NCCc3ccc(F)cc3)c2c1 | 15.4
42 | NC(=O)COC(=O)c1ccccc1SCC(=O)NC1CCCCCC1 | 22.4
43 | CCOc1ccccc1-n1c(SCC(=O)N2CCOCC2)nc2ccccc2c1=O | 9.52
44 | COc1cccc(C(=O)NNC(=O)C2CCCO2)c1 (centres unmarked) | 9.37
45 | Cc1ccsc1/C=N/n1c(C2CCCCC2)n[nH]c1=S | 9.33
46 | COc1ccc(CN2CCCC(C(=O)N(C)Cc3ccccc3)C2)cc1OC.O=C(O)C(=O)O (centres unmarked) | -46.2

Row | Compound | hERG current change (%, negative = inhibition) at 1uM [%]
47 | COc1cccc(CC2(CO)CCCN(Cc3ccccc3Cl)C2)c1 (centres unmarked) | -12.5
48 | CCN(C(=O)Oc1ccccc1)c1ccc(C(O)(C(=O)OC)C(F)(F)F)cc1 (centres unmarked) | 11.8
49 | Cc1ccc(C(=O)N/C(=C/c2ccco2)C(=O)N2CCCCCC2)cc1 | 21.9
50 | NC(N)=Nc1nc2ccc([N+](=O)[O-])cc2[nH]1 | 13.6
51 | O=C(COC(=O)c1ccc2ccccc2c1)Nc1ncc(C(F)(F)F)cc1Cl | 7.24
52 | Cc1cc(C)c(NC(=O)Cn2cnc3c(oc4ccccc43)c2=O)c(C)c1 | 11.7
53 | CCOc1ccc(N2C(=O)CC(Sc3nc(O)c(CC)c(=O)[nH]3)C2=O)cc1 (centres unmarked) | 11.6
54 | Cc1ccccc1NC(=O)CC1c2ccccc2CC(C)(C)N1C (centres unmarked) | 13
55 | Cc1ccc(S(=O)(=O)N(C)c2c(C)ccc(S(=O)(=O)NC(C)(C)C)c2C)cc1 | 12.2
56 | Cc1ccccc1NC(=O)Oc1cccc(OC(=O)c2ccccc2)c1 | 10.9
57 | Cc1ccc(CNC(=O)CNS(=O)(=O)c2ccc3nc(C)sc3c2)cc1 | -8.77
58 | Nc1c(N=O)c(=O)[nH]c(=O)n1-c1ccccc1 | 11.4
59 | COc1cccc(CN2CCN(Cc3cc4ccccc4o3)CC2CCO)c1 (centres unmarked) | 6.2
60 | CCOC(=O)c1sc(-c2ccccc2)nc1C | 9.24
61 | COc1ccc(C2(C(=O)Nc3ccccc3)CCOCC2)cc1 | 11.2
62 | CCOC(=O)c1nnn(-c2nonc2N)c1CN1CCc2ccccc2C1 | 3.43
63 | O=C(CNc1cc(S(=O)(=O)N2CCOCC2)ccc1N1CCCC1)NCc1ccco1 | -37.8
64 | Cc1cnc(C(=O)OCC(=O)NC(C)CCc2ccccc2)cn1 (centres unmarked) | 4.54
65 | Cc1cc(C)nc(NC2=NC3CCCCC3N2)n1 (centres unmarked) | -2.33
66 | CCn1c2ccccc2c2cc(NC(=O)CNC)ccc21.O=C(O)C(=O)O | 8.92
67 | O=C(CCCNS(=O)(=O)c1cccc2nsnc12)NCCN1CCN(c2ccccc2F)CC1 | 2.78
68 | O=C(Nc1cccc(NC(=O)c2cccnc2)c1)c1cccnc1 | 9.64
69 | CCOc1ccc(N/C=C/C(=O)c2ccccc2)c([N+](=O)[O-])c1 | 14.9

Row | Compound | hERG current change (%, negative = inhibition) at 1uM [%]
70 | Cc1ccccc1NC(=S)N=Nc1c(O)n(C)c2ccc(S(=O)(=O)N3CCOCC3)cc12 | -0.652
71 | CC(C)CC(=O)N1CCN(Cc2ccc(Br)cc2)CC1 | 9.67
72 | O=C(O)c1cc2nc(-c3cccs3)cc(C(F)(F)F)n2n1 | 15.1
73 | Cn1c(=O)c(=O)n(C)c2cc(S(=O)(=O)CCC(=O)NCc3ccccc3)ccc21 | 19.2
74 | O=C(COc1ccccc1)N1CCc2ccccc2C1 | 14
75 | OCCC#Cc1ccc(CN2CCN(C3CCCCC3)C(CCO)C2)cc1 (centres unmarked) | 12.4
76 | CC(C)Cn1cnc2sc3c(c2c1=N)CCCC3 | 5.01
77 | CCOC(=O)Cc1csc(N(C)C)n1 | 0.0664
78 | Cc1cccc(NC(=O)CN(C)S(=O)(=O)c2ccc(-c3ccc(=O)[nH]n3)s2)c1C | -5.3
79 | CCOC(=O)c1ccc(NC(=O)CSC2=NC(=O)C(CC)C(=O)N2)cc1 (centres unmarked) | 16.8
80 | Cc1ccc(NC(=O)C(C)OC(=O)c2ccc(NS(=O)(=O)c3ccc(F)c(F)c3)cc2)cc1 (centres unmarked) | 14
81 | CC(C)Cn1c(=O)c(CCC(=O)Nc2ccc(N3CCOCC3)cc2)nc2cc(Cl)ccc21 | 13.2
82 | COCCNC(=O)c1onc(CSc2ccc(Cl)cc2)c1C(=O)O | 9.56
83 | O=C(Cc1c(F)cccc1Cl)Nc1cccnc1 | 14.7
84 | O=C(CSc1nnc(NC(=O)c2cccc(Cl)c2)s1)NCC1CCCO1 (centres unmarked) | 16.1
85 | O=C(Nc1ccccc1)N1CCc2ccccc21 | 6.6
86 | CCOC(=O)c1csc(NC(=O)c2ccc(S(=O)(=O)N(CC)CC)cc2)n1 | 8.68
87 | O=C(C1=C(O)C(=O)N(CCN2CCOCC2)C1c1ccc([N+](=O)[O-])cc1)c1cc2ccccc2o1 (centres unmarked) | 9.77
88 | Cc1ccc2[nH]c(=O)c(-c3noc(CC(C)C)n3)cc2c1 | 8.46
89 | COc1ccc(CCNC(=O)Cn2c(=O)n(CCCC(=O)NCc3ccco3)c(=O)c3sccc32)cc1OC | 11.2
